# Test results: the antibiotic and cytotoxicity screens of Wong et al. (2023)
# Some of the results follow.
# System: HSkMC (human skeletal muscle cells)
# Experiment: cytotoxicity call (relative viability < 0.9)
# Settings: 10 µM
row,Structure (SMILES),cytotoxicity call
1,O=C(C[C@@H]1C=C[C@H](NC(=O)c2ccc3c(c2)OCO3)[C@@H](CO)O1)NCc1ccc(Oc2ccccc2)cc1,inactive
2,C[C@@H]1CN([C@H](C)CO)C(=O)Cc2cc(NC(=O)Nc3ccc(C(F)(F)F)cc3)ccc2O[C@H]1CN(C)Cc1ccc(C(=O)Nc2ccccc2N)cc1,inactive
3,C/C=C/c1ccc2c(c1)O[C@H](CN(C)Cc1ccc(C(=O)O)cc1)[C@@H](C)CN([C@@H](C)CO)S2(=O)=O,inactive
4,COc1ccc(CN(C)C[C@@H]2OCCCC[C@@H](C)Oc3ccc(NC(=O)NC4CCCCC4)cc3C(=O)N([C@H](C)CO)C[C@H]2C)cc1,inactive
5,C[C@@H]1CN([C@H](C)CO)S(=O)(=O)c2ccc(C#Cc3ccc(F)cc3)cc2O[C@H]1CN(C)C(=O)CN(C)C,inactive
6,CN1C(=O)c2cc(NC(=O)Cc3cccs3)ccc2OC[C@@H]2O[C@H](CC(=O)NCCc3ccncc3)CC[C@H]21,inactive
7,COc1ccc(CN(C)C[C@@H]2OCCCC[C@@H](C)Oc3ccc(NS(=O)(=O)c4ccc(OC)cc4)cc3C(=O)N([C@H](C)CO)C[C@@H]2C)cc1,inactive
8,COc1c(C)c2c(c(O)c1CC=C(C)CCC(=O)OCCN1CCOCC1)C(=O)OC2,inactive
9,C[C@H]1CN([C@@H](C)CO)C(=O)c2cc(NS(C)(=O)=O)ccc2O[C@H]1CN(C)S(C)(=O)=O,inactive
10,COc1cccc(S(=O)(=O)N(C)C[C@H]2OCc3cnnn3CCCC(=O)N([C@H](C)CO)C[C@H]2C)c1,inactive
11,O=C(Nc1ccc(-c2nc3cc(NC(=O)c4ccccc4[N+](=O)[O-])ccc3o2)cc1)c1ccccc1[N+](=O)[O-],inactive
